Hit rate of the full screen: of about 420,000 compounds, about 50,000 (12%) were called active. The inconclusive results got no clear call from the source; some entries with a clear call stand among them for comparison. The call rests on the fitted dose curve; in most records, active means well fitted inhibition curve with a large enough effect; inconclusive means small, poorly fitted or top-dose-only effect; inactive means flat fitted curve, though single readings scatter. Potencies of inconclusive entries are left out as doubtful fits.
experiment: qHTS for Inhibitors of human tyrosyl-DNA phosphodiesterase 1 (TDP1): qHTS in cells in presence of CPT; conditions: chicken DT40 Tdp1-/-;hTDP1 cells + 20 nM CPT, ATP luminescence, 48 h; activity change, negative = growth inhibition: at 46.2 µM (top of the series); further: nearly all actives have a fitted effect of over 55% in size
Procedure, shortened: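 Chicken DT40 Tdp1-/- cells complemented with human TDP1, 400 cells/well, exposed to compounds plus 20 nM camptothecin for at least 48 h at 37 C; viability read as ATP content by CellTiter-Glo luminescence.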
On the % scale 0 is the no-effect control and ±100 the full control effect; potency means the concentration at half of the fitted maximal effect; tags describe the fitted curve by direction and shape.

Row | SMILES | activity change, negative = growth inhibition | Potency
1 | COc1ccc2sc(C)cc(=O)c2c1 | inactive: 21.1% | 
2 | Brc1ccc(C2C3=C(Nc4ncnn42)c2ccccc2OC3c2ccncc2)cc1 (centres undefined) |  | inconclusive [inhibitor, single point]
3 | COc1ccc(NC(=O)C(=O)NCC(c2ccco2)N2CCc3ccccc3C2)cc1 (centres undefined) |  | inconclusive [inhibitor, single point]
4 | Cc1ccc(CSC2=Nc3ccccc3C3=NC(CCC(=O)NCc4cccs4)C(=O)N23)c(C)c1 (centres undefined) |  | inconclusive [inhibitor, partial curve]
5 | CCOC(=O)c1oc2ccccc2c1NC(=O)c1cc(OC)cc(OC)c1 |  | inconclusive [inhibitor, single point]
6 | C=CCOc1ccc(/C=C/C(=O)OCC(=O)N(C)C2CCS(=O)(=O)C2)cc1 (centres undefined) | inactive: -7.72% | 
7 | COc1cccc(CNCc2ccc(OC)c3ccccc23)c1OC |  | active: 20.6 µM
8 | CC(Sc1cccc[n+]1[O-])c1ccccc1 (centres undefined) |  | inconclusive [inhibitor, single point]
9 | O=S(=O)(c1cnc[nH]1)N1CCc2ccccc21 |  | inconclusive [inhibitor, single point]
10 | CCOC(=O)c1ccc(N2CCN(c3cc(Cl)ccc3C)CC2)c(NC(=O)Nc2ccc(OCC)cc2)c1 |  | inconclusive [inhibitor, single point]
11 | COC(=O)[C@H](Cc1ccccc1)NC(=O)N1CCN(c2ccc(F)cc2)CC1 |  | inconclusive [inhibitor, single point]
12 | Cc1cc(N2CCN(C)CC2)nc2ccc(NC(=O)Nc3ccc(F)cc3F)cc12 |  | inconclusive [inhibitor, single point]
13 | COc1ccc(CNC(=O)CN(c2ccccc2OC)S(=O)(=O)c2cccs2)cc1 |  | active: 16.4 µM
14 | COc1ccc(-c2cc(-c3cc(OC)ccc3O)[nH]n2)cc1 |  | active: 20.6 µM
15 | CCC(Oc1ccccc1)C(=O)N1CCN(Cc2cc(=O)n3nc(-c4cccc(C)c4)sc3n2)CC1 (centres undefined) |  | inconclusive [inhibitor, single point]
16 | O=C(NCc1ccccc1F)Nc1ccc([N+](=O)[O-])cc1 |  | inconclusive [inhibitor, single point]
17 | CCOc1ccc(N2CC(=O)N(c3ccc(OCC)cc3)CC2=O)cc1 |  | inconclusive [inhibitor, single point]
18 | CN(CC(=O)Nc1cccc(F)c1)C(=O)/C=C/c1ccc(Br)s1 | inconclusive: -36.1% [inhibitor] | 
19 | CN(C)c1ccc(/C=C/c2sc3ccccc3[n+]2CCCCI)cc1 |  | active: 0.562 µM
20 | COc1ccc(NC(=O)C2=CC(c3ccc(OC)cc3)=NS(=O)(=O)N2C)cc1 |  | inconclusive [inhibitor, single point]
21 | COc1ccc(OC)c(NC(=O)CSc2nnc(C3CCCCC3)o2)c1 | inactive: 16.4% | 
22 | Cc1cccc2nc(=S)n(C(=O)c3ccco3)n12 |  | inconclusive [inhibitor, single point]

Row | SMILES | activity change, negative = growth inhibition | Potency
23 | Cc1ccc(C(=O)OCC(=O)Nc2ccc3c(c2)OCCO3)cc1C |  | inconclusive [inhibitor, single point]
24 | Cc1sc2ncn(CC(=O)NCC(=O)N3CCN(c4ccc(F)cc4)CC3)c(=O)c2c1C | inactive: -15.6% | 
25 | COc1ccccc1NS(=O)(=O)c1ccc(C)c(C(=O)NC2CCN(Cc3ccccc3)CC2)c1 |  | active: 20.6 µM
26 | COc1ccc(CCN(C(=O)/C=C/C(=O)O)C2CC(=O)N(c3ccccc3)C2=O)cc1 (centres undefined) | inactive: 4.87% | 
27 | O=C(NCCN1CCOCC1)c1cnn(-c2nccc(-c3cc4ccccc4o3)n2)c1C1CC1 |  | active: 18.4 µM
28 | C#Cc1ccc(CN2CCC(Oc3cc(C(=O)NC4CC4)ccc3OC)CC2)cc1 |  | inconclusive [inhibitor, single point]
29 | Cc1ccc(-n2c(=O)c3c(c4cc(C)ccc4n3C)n(CC(=O)NCC3CCCO3)c2=O)cc1 (centres undefined) |  | inconclusive [inhibitor, single point]
30 | N#Cc1c(N2CCN(c3ccc([N+](=O)[O-])cc3)CC2)[n+](=O)c2ccc(Cl)cc2n1[O-] |  | active: 0.461 µM
31 | Cc1ccc(NS(=O)(=O)c2c(C)nc3sccn3c2=O)c(Cl)c1 |  | inconclusive [inhibitor, single point]
32 | CC(C)CCn1c(Oc2ccc(Cl)cc2)nc2c1c(=O)n(C)c(=O)n2C | inconclusive: -33.2% [inhibitor] | 
33 | CCOc1ccc2nc3c(cc2c1)CN(CCCO)C(=NCCOC)S3 |  | inconclusive [inhibitor, single point]
34 | O=C(Nc1ccc(Cl)c(Cl)c1)OCCNC(=O)c1ccncc1 |  | inconclusive [inhibitor, single point]
35 | CCCc1nc(NCCCOCC)c2nnn(Cc3ccccc3)c2n1 |  | inconclusive [inhibitor, single point]
36 | CCC(=O)Nc1cccc(NC(=O)c2ccc3c(c2)OCCO3)c1 | inconclusive: -34.9% [inhibitor] | 
37 | Cc1nn(-c2ccc(N3CCCC3)nn2)c(C)c1CCC(=O)Nc1ccccc1 |  | inconclusive [inhibitor, single point]
38 | CCCCOC(=O)c1ccc(NC2=NS(=O)(=O)c3ccccc32)cc1 |  | inconclusive [inhibitor, full curve, poor fit]
39 | O=C1CN(C(=O)COC(=O)c2ccc([N+](=O)[O-])s2)c2ccccc2N1 |  | inconclusive [inhibitor, single point]
40 | Cc1ccc(C23CC4CC(CC(NC(=O)NCCN(C)C)(C4)C2)C3)cc1 |  | inconclusive [inhibitor, single point]
41 | Cc1ccc(C(=O)N2CCN(C34CC5CC(CC(C5)C3)C4)CC2)o1 | inactive: 1.37% | 
42 | O=C(N1CCOCC1)N1c2ccccc2CC(N2CCOCC2)c2ccccc21 (centres undefined) |  | inconclusive [inhibitor, single point]
43 | CCOc1ccc(N2CC(C(=O)NCCCc3ccccc3)CC2=O)cc1 (centres undefined) | inactive: -2.55% | 
44 | CN(C(=O)CN1C(=O)/C(=C/c2ccc(Cl)cc2)SC1=S)C1CCS(=O)(=O)C1 (centres undefined) |  | active: 18.4 µM

Reference: PubChem BioAssay AID686979 (National Center for Advancing Translational Sciences (NCATS), 2013)
